The test concerns the target T1, Human heat shock transcription factor 1 (Hsf1), wild type (human, UniProt Q00613 1-529).
T1 sequence: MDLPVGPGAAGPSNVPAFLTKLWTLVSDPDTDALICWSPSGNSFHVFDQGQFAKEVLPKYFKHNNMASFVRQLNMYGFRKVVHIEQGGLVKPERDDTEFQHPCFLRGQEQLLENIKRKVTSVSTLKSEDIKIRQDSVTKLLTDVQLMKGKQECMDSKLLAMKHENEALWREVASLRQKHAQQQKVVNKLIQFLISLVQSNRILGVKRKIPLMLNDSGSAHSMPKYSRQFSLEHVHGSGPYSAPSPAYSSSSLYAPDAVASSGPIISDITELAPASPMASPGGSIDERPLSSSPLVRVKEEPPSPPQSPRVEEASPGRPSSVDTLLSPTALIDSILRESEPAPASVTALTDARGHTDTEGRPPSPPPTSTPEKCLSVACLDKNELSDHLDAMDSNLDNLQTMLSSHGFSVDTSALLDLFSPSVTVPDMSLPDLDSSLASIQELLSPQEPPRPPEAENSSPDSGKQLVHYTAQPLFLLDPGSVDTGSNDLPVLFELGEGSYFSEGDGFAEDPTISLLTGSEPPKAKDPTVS
The test is described as follows: HDX-MS.

B1: Human DnaJB1/Hdj1, wild type (natural protein)
chain: MGKDYYQTLGLARGASDEEIKRAYRRQALRYHPDKNKEPGAEEKFKEIAEAYDVLSDPRKREIFDRYGEEGLKGSGPSGGSGGGANGTSFSYTFHGDPHAMFAEFFGGRNPFDTFFGQRNGEEGMDIDDPFSGFPMGMGGFTNVNFGRSRSAQEPARKKQ[about 150 residues not written out]PERIPQTSRTVLEQVLPI
B1: the binding result is listed as “binds”.

For the origin of these results see paper doi:10.1101/803361 (bioRxiv, 2019).
